# PubChem BioAssay AID1508642 (National Center for Advancing Translational Sciences (NCATS), 2021)
# In all, about 43,000 compounds went through this assay and about 200 (0.47%) were called active. Not shown: some 12% with an inconclusive outcome. Calls follow the shape of the dose curve; as a rule, active = well fitted cell-killing curve with a large enough effect; inconclusive = small, poorly fitted or top-dose-only effect, or effect the other way; inactive = flat fitted curve, though single readings scatter. This is one part of the list.
# Assay: Cell viability qHTS assay in S16 Pmp22-F2sN cells; also: nearly all actives have a fitted effect of over 65% in size
# Settings: S16 Pmp22-F2sN Schwann cells viability, CellTiter-Glo, 24 h; series mostly up to 57.5 µM; activity change, negative = cytotoxicity: at the top concentration
# Outline: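 S16 Pmp22-F2sN Schwann cells (500-1,000/well) in phenol-red-free DMEM with 10% FBS received 23 nL compound by pin tool for 24 h at 37 °C. Viability was then read as CellTiter-Glo luminescence after 15 min at room temperature.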
# % is scaled to controls: 0 for no effect and ±100 for the full control effect.
row,Compound,"activity change, negative = cytotoxicity"
1,CCCNC(=O)CSc1cn(CC(=O)N2CCCCCC2)c2ccccc12,inactive: 1.08%
2,O=C(CSc1nc2sc3c(c2c(=O)[nH]1)CCCC3)Nc1ccccc1F,inactive: -6.49%
3,CCOc1ccc(-c2nnc(SCC(=O)Nc3cccc(Cl)c3C)o2)cc1,inactive: -1.51%
4,COc1ccc(CCNC(=O)CCn2c(=O)c3ccccc3n(Cc3ccccc3C)c2=O)cc1OC,inactive: -0.178%
5,COc1ccc(CCNc2nc3c(c(=O)n(C)c(=O)n3C)n2Cc2ccccc2Cl)cc1OC,inactive: -11%
6,O=C(Cn1cc(S(=O)(=O)Cc2ccccc2F)c2ccccc21)NCc1ccccc1,inactive: -0.626%
7,Cc1ccc2c(=O)cc(C(=O)Nc3nc4ccc(Cl)cc4s3)oc2c1,inactive: 15.1%
8,O=C(Nc1ccc(C(=O)OCc2cc(=O)n3c4c(sc3n2)CCCC4)cc1)c1cccc(F)c1,inactive: 4.4%
9,Cc1cccc(C(=O)Nc2ccccc2OCc2cc(=O)n3c(C)csc3n2)c1,inactive: 3.03%
10,COc1cc(OC)cc(N2C(=O)CSC23C(=O)Nc2ccccc23)c1 (centres undefined),inactive: 9.06%
11,CCOc1ccc(Nc2c3c(nc4nncn24)CCC3)cc1,inactive: -11.8%
12,O=C(CCc1ccccc1)N1CCc2c([nH]c3ccccc23)C1c1ccc(F)cc1 (centres undefined),inactive: 1.61%
13,CCCCNC(=O)c1sc2ncccc2c1-n1cccc1,inactive: 3.53%
14,O=C(CCCn1c(=O)c2ccccc2n(Cc2cccc(F)c2)c1=O)NCc1ccccc1Cl,inactive: 12.1%
15,COc1ccc(NC(=O)CN(c2ccc(C)cc2)S(=O)(=O)c2cccs2)cc1,inactive: 0.854%
16,Cc1cccc(NS(=O)(=O)c2ccc3c(c2)CCCN3C(=O)C2CCC2)c1C,inactive: -28.7%
17,Cc1cc2oc(C(=O)Nc3c(C)n(C)n(-c4ccccc4)c3=O)cc(=O)c2cc1C,inactive: -5.61%
18,CN1C(=O)c2ccccc2Sc2ccc(NC(=O)c3ccc(C#N)cc3)cc21,inactive: -22.4%
19,COC(=O)C(CCSC)NC(=O)c1cc2c(n(-c3ccccc3)c1=O)CC(C)(C)CC2=O (centres undefined),inactive: 9.13%
20,CCOC(=O)Cn1c(=O)n(-c2ccc(Cl)cc2)c2nc(-c3ccc(Cl)cc3)nc(C(N)=O)c21,inactive: -0.411%

row,Compound,"activity change, negative = cytotoxicity"
1,CC(=O)N1CCCc2cc(S(=O)(=O)N3CCCC(C(=O)Nc4cccc(Cl)c4C)C3)ccc21 (centres undefined),inactive: 3.44%
2,CCOC(=O)c1cnc2ccc(OCC)cc2c1Nc1cc(Cl)c(OC)cc1OC,inactive: -21.8%
3,Cc1nc(SCc2ccc(Cl)cc2)c(C#N)c(C)c1Cl,inactive: 9.68%
4,COc1ccc(OC)c(NC(=O)N2CCC(CN3CCCCC3)CC2)c1,inactive: -2.53%
5,CCOc1cc(C(=O)Nc2ccc(S(=O)(=O)Nc3cc(OC)nc(OC)n3)cc2)cc(OCC)c1OCC,inactive: -4.15%
6,COC(=O)c1ccc(Cn2c(SCC(=O)N(C)c3ccccc3)nc3ccccc32)cc1,inactive: 5.34%
7,Cc1ccc(C)c(OC(=O)CSc2nnc(-c3ccc4c(c3)OCO4)o2)c1,inactive: 10.4%
8,CCCN(CCC)CCNC(=O)C1CCCN(S(=O)(=O)c2cccc3nsnc23)C1 (centres undefined),inactive: 16.3%
9,CCOC(=O)c1cc(S(=O)(=O)N2CCN(c3ccc(F)cc3)CC2)[nH]n1,inactive: 1.36%
10,CCCCCOC(=O)c1ccc(OC(=O)c2sc3ncn(Cc4cccc(F)c4)c(=O)c3c2C)cc1,inactive: 4.81%
11,Cc1ccc(C)c(N2CCN(CCCNC(=O)c3nnc(Cc4ccc(F)cc4Cl)o3)CC2)c1,inactive: -14.6%
12,O=C(NCc1ccccc1Cl)c1ccc(NC(=O)N2CCSc3ncccc32)cc1,inactive: 4.91%
13,Cc1ccc(NC(=O)c2oc3ccc(S(=O)(=O)N4CCC5(CC4)OCCO5)cc3c2C)c(C)c1,inactive: -17.1%
14,COCCn1c(SCC(=O)Nc2ccc(C(F)(F)F)cc2)nc2c([nH]c3ccccc32)c1=O,inactive: -3.11%
15,O=C(NCc1ccc2c(c1)CCN2C(=O)c1ccccc1)c1ccco1,inactive: -20.3%
16,O=C(Nc1ccc(S(=O)(=O)N(Cc2ccccc2)c2ccccc2)cc1)c1ccc([N+](=O)[O-])cc1,inactive: -18.5%
17,Cc1ccc(NC(=O)C(=O)NCCc2csc3nc(-c4ccccc4C)nn23)cc1Cl,inactive: 4.04%
18,Cc1ccc(NC(=O)C2CCCN(S(=O)(=O)c3c(C)n[nH]c3C)C2)cc1C (centres undefined),inactive: 1.5%
19,CSc1cccc(NC(=O)C2CCN(S(=O)(=O)c3ccc4[nH]c5c(c4c3)CCCCC5)CC2)c1,inactive: -15.4%
20,COc1ccc(C)cc1NC(=O)Cn1c(=O)oc2cc(S(=O)(=O)NCc3ccccc3)ccc21,inactive: 6.1%

row,Compound,"activity change, negative = cytotoxicity"
1,COc1ccc2c(c1)CC(C(=O)NCCN1CCN(c3cccc(C)c3C)CC1)CO2 (centres undefined),inactive: 4.23%
2,COc1ccc2c(c1)c1c(c(=O)n(Cc3ccccc3)c(=O)n1CC(=O)Nc1ccc(C)cc1C)n2C,inactive: 1.92%
3,CC(C)CCNC(=O)Nc1cc(C(=O)NCc2cccc(F)c2)ccc1N1CCCC1,inactive: -23.8%
4,O=C(Nc1nnc(S(=O)(=O)N2CCCCCC2)s1)c1ccccc1Br,inactive: 13.7%
5,CC(=O)Nc1ccc(Nc2nnc(-c3ccc(C)c(S(N)(=O)=O)c3)c3ccccc23)cc1,inactive: 6.09%
6,COCCCNC(=O)CN1C(=O)CSc2ccc(S(=O)(=O)N3CCOCC3)cc21,inactive: 7.02%
7,CCCS(=O)(=O)N1CC(=O)N(c2ccc(Cl)cc2)C(C)(C(=O)NC2CCCC2)C1 (centres undefined),inactive: 7.73%
8,Cc1c(Cl)cccc1NC(=O)CSc1nc(=O)n(Cc2cccnc2)c2c1CCC2,inactive: 7.08%
9,CCOc1cccc(NC(=O)c2ccc(F)c(S(=O)(=O)N(CC)c3cccc(C)c3)c2)c1,inactive: 9.68%
10,Cc1ccc(Cn2cc(S(=O)(=O)c3ccc(C)cc3)c(=O)c3cc(F)c(N4CCCC4)cc32)cc1,inactive: -13.8%
11,CC(=O)N1CCc2c(sc3c2c(=O)n(CCc2ccccc2)c(=O)n3Cc2cccc(C)c2)C1,inactive: 12.8%
12,O=c1c(=O)n(Cc2c(F)cccc2Cl)ccn1Cc1ccccc1,inactive: -7.98%
13,CC(C)NC(=O)Cn1nc(N2CCN(c3ccccc3)CC2)ccc1=O,inactive: 1.71%
14,COc1ccc2oc(-c3ccc(C)c(NC(=O)CSc4ccc(Cl)cc4)c3)nc2c1,inactive: -1.27%
15,CCOc1cc(C2C(C(=O)OC)=C(C)NC3=C2C(=O)c2ccccc23)c(Br)cc1O (centres undefined),inactive: -15.2%
16,CC(=O)N1c2ccc(S(=O)(=O)N3CCN(c4cccc(Cl)c4)CC3)cc2CC1C (centres undefined),inactive: 3.98%
17,CCN(CC)c1ccc(NC(=O)CN2C(=O)c3cccnc3Sc3ccccc32)c(C)c1,inactive: -0.256%
18,COc1cccc(NC(=O)Cn2c(=O)n(CC(=O)NCCc3ccccc3)c(=O)c3sccc32)c1,inactive: 3.34%
19,Cc1ccc(-c2c3c(=O)n(C)c(=O)n(C)c3cn2-c2cc(C)ccc2O)cc1,inactive: -0.185%
